In all, about 310,000 compounds went through this assay and about 2,200 (0.71%) showed an effect of 50% or more. Effects have a minus sign here. This is one part of the list.
target: human ether-à-go-go-related gene (hERG) potassium channel (human, UniProt Q12809); experiment: primary screen, population patch clamp on CHO cells stably expressing hERG
Sequence (Q12809 whole entry, looked up): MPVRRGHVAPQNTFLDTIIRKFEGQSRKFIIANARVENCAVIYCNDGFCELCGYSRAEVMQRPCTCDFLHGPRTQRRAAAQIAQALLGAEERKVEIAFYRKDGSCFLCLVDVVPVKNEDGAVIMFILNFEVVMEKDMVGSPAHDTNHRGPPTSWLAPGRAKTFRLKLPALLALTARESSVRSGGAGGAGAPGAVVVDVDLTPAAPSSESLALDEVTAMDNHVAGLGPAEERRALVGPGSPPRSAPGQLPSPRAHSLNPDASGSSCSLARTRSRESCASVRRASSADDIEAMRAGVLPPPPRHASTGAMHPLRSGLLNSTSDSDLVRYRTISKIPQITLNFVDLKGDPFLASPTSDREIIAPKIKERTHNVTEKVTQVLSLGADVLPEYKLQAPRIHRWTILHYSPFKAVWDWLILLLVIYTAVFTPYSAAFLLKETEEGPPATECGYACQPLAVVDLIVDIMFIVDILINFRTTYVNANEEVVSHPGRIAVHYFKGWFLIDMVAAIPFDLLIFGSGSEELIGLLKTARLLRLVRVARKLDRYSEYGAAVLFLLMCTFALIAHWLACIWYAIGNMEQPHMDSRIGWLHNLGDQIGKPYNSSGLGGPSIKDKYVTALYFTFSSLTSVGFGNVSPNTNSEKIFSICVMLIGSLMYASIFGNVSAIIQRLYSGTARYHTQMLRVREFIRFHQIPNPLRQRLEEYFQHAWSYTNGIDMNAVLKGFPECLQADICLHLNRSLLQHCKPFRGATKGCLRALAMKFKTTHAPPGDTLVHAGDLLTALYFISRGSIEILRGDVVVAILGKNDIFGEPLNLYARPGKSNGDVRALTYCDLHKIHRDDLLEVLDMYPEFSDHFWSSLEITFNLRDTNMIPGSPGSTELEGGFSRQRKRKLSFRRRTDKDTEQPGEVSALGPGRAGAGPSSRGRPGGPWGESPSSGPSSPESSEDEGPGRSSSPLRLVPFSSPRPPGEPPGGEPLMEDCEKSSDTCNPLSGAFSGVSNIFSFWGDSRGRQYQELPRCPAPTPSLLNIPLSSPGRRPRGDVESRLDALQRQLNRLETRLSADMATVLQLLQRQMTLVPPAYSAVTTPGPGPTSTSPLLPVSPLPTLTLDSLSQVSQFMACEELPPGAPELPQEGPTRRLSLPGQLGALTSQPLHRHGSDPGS

| SMILES | hERG current change (%, negative = inhibition) at 1uM [%] |
| --- | --- |
| Cc1cccn2c(=O)c3cc(C(=O)NCc4ccco4)c(=N)n(C4CCCCC4)c3nc12 | -84.8 |
| O=Cc1cn(CC(=O)Nc2ccc3c(c2)OCO3)c2ccccc12 | 16.8 |
| O=C(Cc1c(Cl)cccc1Cl)N1CCN(S(=O)(=O)c2cccs2)CC1 | 24 |
| COc1ccc(OCC(O)CN2CCN(c3ccc(Cl)cc3)CC2)cc1 (centres unmarked) | -3.03 |
| Cc1c(N2C(=O)/C(=C3\C(=O)N(CC(=O)O)c4ccccc43)SC2=S)c(=O)n(-c2ccccc2)n1C | 9.82 |
| CC(C)(C)N(NC(=O)Nc1ccc(Cl)c(Cl)c1)C(=O)c1ccccc1 | 8.71 |
| COc1cccc(NC(=O)CCc2c(C)nn(-c3ccc(N4CCOCC4)nn3)c2C)c1 | 3.36 |
| COC(=O)Nc1nnc(-c2ccc(OC)cc2)s1 | 9.88 |
| COc1ccccc1CCN1CCCC(CN(C)C(=O)c2ccc3nc[nH]c3c2)C1 (centres unmarked) | 12.4 |
| CCOc1ccc2nc(N=Nc3c(O)[nH]c(=S)[nH]c3=O)sc2c1 | 12.7 |
| O=C(Nc1ccc2nc3n(c(=O)c2c1)CCCCC3)c1c(F)ccc([N+](=O)[O-])c1F | 0.423 |
| Cc1ccc(C(=O)c2oc3ccccc3c2NC(=O)c2cc(-c3ccccc3O)n[nH]2)cc1 | 13.9 |
| C=CCn1c(O)c(/C=C2\C=NN=C2c2ccccc2)sc1=S | 8.78 |
| Cc1noc(C)c1COc1cccc(C(=O)NCc2cccc(Cl)c2)c1 | 3.67 |
| COc1ccc(C2NCCc3c2[nH]c2ccccc32)cc1COc1ccc(F)cc1.Cl (centres unmarked) | -2.91 |
| CCOC(=O)c1ccc(NC(=O)Cn2nnc(-c3ccccc3)n2)cc1 | 1.77 |
| O=C(CN1CCCCC1)Nc1cc(Cl)ccc1Oc1ccccc1 | 9.88 |
| CCOC(=O)C1(S(=O)(=O)c2ccccc2)CCN(Cc2ccccc2)CC1 | -0.127 |
| CC(C)=CCCC1=CCC(/C=N/NC(N)=O)C(C)C1 (centres unmarked) | 7.56 |
| COC(=O)CSc1nnc(-c2ccoc2C)n1-c1ccc(OC)cc1 | 8.81 |
| Cc1ccoc1C(=O)NCCNC(=O)c1occc1C | -2.62 |
| Cc1ccc(NC(=O)CSC2=C(C#N)C(c3ccco3)C3=C(CCCC3=O)N2)cc1 (centres unmarked) | 5.68 |

| SMILES | hERG current change (%, negative = inhibition) at 1uM [%] |
| --- | --- |
| CC(C)COc1ccccc1C(=O)NC(CO)C(=O)O (centres unmarked) | 15.1 |
| CCN(CC)C(=O)c1c(-c2ccccc2)oc2ccc(OC)cc12 | 10.8 |
| CCOC(=O)Nc1c(C(=O)OC)[nH]c2cc(OC)ccc12 | -3.1 |
| CCOc1ccc(-c2ccc(SCC(=O)N3CCN(c4ccccc4)CC3)nn2)cc1 | 13.6 |
| c1ccc(CN=C2NN=C(c3cc4ccccc4o3)CS2)cc1 | 14.2 |
| CCN(CC)S(=O)(=O)c1ccc(N2CCOCC2)c(NC(=O)c2cnccn2)c1 | 14.5 |
| O=S(=O)(NCc1ccc2c(c1)OCO2)c1cccc2cccnc12 | 0.0688 |
| Cc1csc(=NC(=O)c2ccccc2)n1CCO | 14.6 |
| O=C(CCCn1cnc([N+](=O)[O-])n1)Nc1cccc2ccccc12 | 17.7 |
| COc1ccccc1CCNC(=O)CSc1nnc2ccc(-c3ccncc3)nn12 | 3.14 |
| Br.CCN(CC)S(=O)(=O)c1cccc(C(=O)NN2Cc3ccccc3C2=N)c1 | -3.84 |
| CCOC(=O)c1c(C2CC2)csc1NC(=O)COC(=O)c1cnc(Cl)c(Cl)c1 | 16.3 |
| CCN(CC)S(=O)(=O)c1cc(NC(=O)COC(=O)CCC(=O)c2ccc(F)cc2)ccc1C | 11.4 |
| C=CCn1c(=O)c2ccccc2n2c(SCC(=O)NC)nnc12 | 11.9 |
| CCOC(=O)N1CCN(C(=O)CCc2nc3sc4c(c3c(=O)[nH]2)CCCC4)CC1 | -4.13 |
| Clc1ccc(C2[C@H]3CN(Cc4cccnc4)[C@H](c4ccccc4)C34CC2(c2ccccc2)C4)cn1 (some centres unmarked) | 14.4 |
| Cc1ccc(NC(=O)COC(=O)CN2C(=O)c3ccccc3C2=O)cc1 | 4.96 |
| COc1ccc(C)cc1NC(=O)CCCN1C(=O)C(c2ccccc2)Oc2cccnc21 (centres unmarked) | 11 |
| COc1ccc(OC)c(S(=O)(=O)N2CCCC(C(=O)NCCc3ccccc3)C2)c1 (centres unmarked) | 3.01 |
| CCOc1ccc(-n2c(SCC(=O)Nc3ccccc3CC)nc3n[nH]c(C)c3c2=N)cc1 | 8.56 |
| Cc1cccc(N(C(=O)c2sc(C)nc2C)C(C(=O)NCC2CCCO2)c2ccccc2)c1 (centres unmarked) | 8.18 |
| CC1(C)CC(NC(=O)c2ccc(Cl)c(Cl)c2)CC(C)(C)N1 | 11.9 |

| SMILES | hERG current change (%, negative = inhibition) at 1uM [%] |
| --- | --- |
| CNC(=O)CSc1nnc(-c2ccco2)n1-c1cccc(C)c1 | 7.18 |
| COCC1CCCN(C(=O)c2ccc3oc(C(C)C)nc3c2)C1 (centres unmarked) | 9.33 |
| O=C(C(=O)N1CCOCC1)c1cn(Cc2ccccc2Cl)c2ccccc12 | 7.01 |
| COc1cc(-c2cc(C(=O)N3CCN(c4ccccn4)CC3)c3ccccc3n2)cc(OC)c1OC | -5.78 |
| CC(=O)c1ccc(Nc2ccc([N+](=O)[O-])c3nonc23)cc1 | 13.5 |
| CCC(C)NC(=O)CNC(=O)Cn1c(C)cc2ccccc2c1=O (centres unmarked) | 16.5 |
| COCCn1c(SCC(=O)c2c(N)n(C)c(=O)n(C)c2=O)nc2ccccc21 | 8.41 |
| COc1ccccc1NC(=O)c1cccs1 | -11.4 |
| CC12CCC(C(N)=O)(c3nc4ccccc4nc31)C2(C)C (centres unmarked) | 5.55 |
| Oc1ccc(/C=N/n2c(-c3ccccc3)n[nH]c2=S)cc1Br | 1.11 |
| COCCn1nnnc1C(c1cccc(C(F)(F)F)c1)N1CCN(Cc2ccccc2)CC1.Cl (centres unmarked) | 5.53 |
| CCOc1ccc(NC(=O)CCC(=O)c2ccc(Br)cc2)cc1 | 11.4 |
| Cc1ccc(S(=O)(=O)N(C)C)cc1NC(=O)[C@H](Cc1ccccc1)N1C(=O)c2ccccc2C1=O | 7.69 |
| Cc1ccc(NC(=O)c2ccc3c(=O)n4c(nc3c2)CCC4)cc1F | -3.69 |
| CC(C)(C)OC(=O)N1CCC(c2c(C(=O)NCC3CCN(C4CCCC4)C3)cnn2-c2ccccc2)CC1 (centres unmarked) | 11.6 |
| COc1cc(C(=O)NNC(=O)Cc2ccc(S(=O)(=O)N3CCOCC3)s2)cc(OC)c1OC | 9.26 |
| CCOC(=O)c1cc(OC(=O)c2cccnc2)n(-c2ccccc2)n1 | 6.35 |
| CCOC(=O)C1C(=O)CC(C)(O)C(C(=O)OCC)C1c1ccccc1OC (centres unmarked) | 8.66 |
| CCN1CCCC1CNC(=O)C1c2cc(OC)c(OC)cc2C(=O)N(C)C1c1cccnc1 (centres unmarked) | 5.93 |
| CSCCC(N=Cc1c(O)n(-c2ccc(F)cc2)c(=O)[nH]c1=O)C(=O)OC(C)(C)C (centres unmarked) | -4.02 |
| COc1ccc2[nH]cc(CCNS(=O)(=O)c3ccccc3)c2c1 | 12.7 |
| Cc1cccc(-c2nc(Nc3ccc(N4CCOCC4)cc3)c3ccccc3n2)c1 | 17.9 |

| SMILES | hERG current change (%, negative = inhibition) at 1uM [%] |
| --- | --- |
| O=C1CC(c2ccco2)CC(O)=C1C=NCCO (centres unmarked) | 12.9 |
| Cc1cccc(C)c1NC(=O)CN(C)CC(=O)Nc1ccccc1Oc1ccccc1 | 15.5 |
| CCCN1CCC(NC2CCC(O)CC2)CC1 (centres unmarked) | 5.19 |
| Cc1ccc(CNS(=O)(=O)c2c(C)n(C)c(=O)n(C)c2=O)cc1 | 11.3 |
| COc1ccc2c(c1)CCNC2Cc1ccc(OC)c(O)c1 (centres unmarked) | 8.46 |
| CS(=O)(=O)c1ccc2nc(NC(=O)c3ccccc3Br)sc2c1 | 6.45 |
| COc1cccc(OCc2nc(-c3cccc([N+](=O)[O-])c3)no2)c1 | 12.3 |
| CCc1noc(C)c1C(=O)N1CCC(CCC(=O)Nc2cccc(OC)c2)CC1 | 4.89 |
| Cc1cnn(-c2nc(-c3cccs3)cc(C(F)(F)F)n2)c1 | 5.88 |
| Cc1sc2ncnc(N3CCC(C(=O)Nc4nnc(SCc5ccccc5F)s4)CC3)c2c1C | 10.3 |
| Cc1cc(=O)nc2c3ccccc3n(CC(=O)Nc3ccccc3Br)n12 | -0.905 |
| COc1ccc(S(=O)(=O)n2cccc2)cc1OC | 11.1 |
| NC(=O)CSc1oc(-c2ccco2)nc1S(=O)(=O)c1ccccc1 | -9.51 |
| CN1C(=O)/C(=C2\SC(=S)N(CCCCCC(=O)O)C2=O)c2ccccc21 | 7.08 |
| CCCC1=C(C(=O)OCC)C(c2ccco2)C(C#N)=C(N)O1 (centres unmarked) | 4.38 |
| CCCSc1nnc2nc(C)cc(C)n12 | 6.16 |
| CCOC(=O)c1c(C)[nH]c(C(=O)OCC(=O)NCCc2ccc(OCC)c(OCC)c2)c1C | 25.4 |
| Cc1ccnc(NS(=O)(=O)c2ccc(NC(=O)Cc3ccccc3)cc2)n1 | 8.81 |
| Cc1sc2nc(CN3CCOCC3)nc(N3CCN(S(=O)(=O)c4ccccc4)CC3)c2c1C | -0.853 |
| Cc1cc(O)ccc1NC(=S)NC(=O)c1cncc(Br)c1 | 14.5 |
